The results in this text go back to the supplement of paper PMC9938546.

Counter-ions that a name gives are not always drawn. The list shows a part of the results. Most values come without repeats; read them as rough.
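Further: viability estimated indirectly by image-based GFP quantification with live-cell imaging of the constitutively GFP-expressing human colorectal cancer line, no immune cells added.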

This assay has as its system HCT116-GFP. Description: HCT116-GFP viability (GFP intensity) relative to untreated control, monoculture; higher = less cancer cell killing. Conditions: culture: HCT116-GFP monoculture; 10 µM; 72 h.
As to `O=C1CC[C@@]2(O)[C@H]3Cc4ccc(O)c5c4[C@@]2(CCN3CC2CC2)[C@H]1O5` [Naltrexone hydrochloride dihydrate], the HCT116-GFP viability is 114%.

On to `CN1CCC2(C)c3cc(O)ccc3N(C)C12` (single isomer, unassigned; (-)) [(-)-Eseroline fumarate salt], for which the HCT116-GFP viability worked out at 83%.

Consider `CC(NC(C)(C)C)C(=O)c1cccc(Cl)c1` (stereo unspecified) [Bupropion hydrochloride], for which the HCT116-GFP viability is 107%. In the case of `NCCCNCCSP(=O)(O)O` [Amifostine], the HCT116-GFP viability worked out at 87%. With `CC1OC(OC2/C=C/C=C/C=C/C=C/CC/C=C/C=C/[C@H](C)[C@@H](O)[C@@H](C)[C@H](C)OC(=O)CC(O)CC(O)CC(O)CCC(O)C(O)C[C@]3(O)CC(O)C(C(=O)O)C(C2)O3)C(O)C(N)C1O` (stereo partly specified) [Nystatine], the HCT116-GFP viability was 93.2%. The value for `O=c1[nH]c2ccccc2n1C1CCN(CCCC(c2ccc(F)cc2)c2ccc(F)cc2)CC1` [Pimozide] was 41%; that for `C#CCN(C)[C@H](C)Cc1ccccc1` [Selegiline hydrochloride] was 106%; that for `C[C@@H]1O[C@@H](O[C@@H]2C=C3CC[C@@H]4[C@H](CC[C@]5(C)[C@@H](c6ccc(=O)oc6)CC[C@]45O)[C@@]3(C)CC2)[C@H](O)[C@H](O)[C@H]1O` [Proscillaridin A] was 3.85%. For the compound `CN(C)C(=O)Oc1ccc[n+](C)c1` [Pyridostigmine iodide], the HCT116-GFP viability turned out to be 75.6%. Take `C[C@]12CC[C@@H](O)C[C@H]1CC[C@@H]1[C@@H]2CC[C@]2(C)C(=O)CC[C@@H]12` [3-alpha-Hydroxy-5-beta-androstan-17-one]: the HCT116-GFP viability worked out at 103%. For the compound `COc1ccc(C(CN(C)C)C2(O)CCCCC2)cc1` (stereo unspecified) [Venlafaxine], the HCT116-GFP viability worked out at 102%.

For the compound `CNC(=O)Oc1ccc2c(c1)[C@]1(C)CCN(C)[C@@H]1N2C` [Eserine hemisulfate salt], the HCT116-GFP viability worked out at 81.3%. As for `CN(C)C(=O)Oc1cccc([N+](C)(C)C)c1` [Neostigmine bromide], the HCT116-GFP viability is 95.3%. With `CC(C)(N)Cc1ccccc1` [Phentermine hydrochloride], the HCT116-GFP viability stood at 88.4%. Turning to `CCNCC(O)c1cccc(O)c1` (stereo unspecified) [Etilefrine hydrochloride], the HCT116-GFP viability turned out to be 90.3%.

For the compound `CCC1=C[C@H]2CN3CCc4c([nH]c5ccccc45)[C@](C(=O)OC)(C2)[C@H]13` [Catharanthine], the HCT116-GFP viability was found to be 99.7%. For `CC(C)C[C@H]1C(=O)N2CCC[C@H]2[C@]2(O)O[C@](NC(=O)[C@@H]3C=C4c5cccc6[nH]c(Br)c(c56)C[C@H]4N(C)C3)(C(C)C)C(=O)N12` [Bromocryptine mesylate] the value was 57.6%.

In the case of `CN1[C@@H]2CC[C@H]1C[C@@H](OC(=O)C(CO)c1ccccc1)C2` (stereo partly specified) [Atropine sulfate monohydrate], the HCT116-GFP viability is 92.1%.

Take `C[C@]12CCC(=O)C(O)=C1CC[C@@H]1[C@@H]2CC[C@]2(C)C(=O)CC[C@@H]12` [Formestane]: the HCT116-GFP viability amounted to 109%.

Consider `CNC(C)(C)Cc1ccccc1` [Mephentermine hemisulfate], for which the HCT116-GFP viability came to 144%. For `O=P1(N(CCCl)CCCl)NCCCO1` (stereo unspecified) [Cyclophosphamide], the HCT116-GFP viability was 101%. For `C[C@]12COC(=O)C[C@@H]1CC[C@@H]1[C@@H]2CC[C@@]2(C)[C@H]1CC[C@]2(C)O` [Oxandrolone] the value was 96.9%; for `CN1C(=O)CCS(=O)(=O)C1c1ccc(Cl)cc1` (stereo unspecified) [Chlormezanone], 98.5%; for `C[C@]12C/C(=C/O)C(=O)C[C@@H]1CC[C@@H]1[C@@H]2CC[C@@]2(C)[C@H]1CC[C@]2(C)O` [Oxymetholone], 94.9%.

On to `CC(=O)[C@H]1CC[C@H]2[C@@H]3CC[C@H]4C[C@H](O)CC[C@]4(C)[C@H]3C(=O)C[C@]12C` [Alfaxalone], for which the HCT116-GFP viability was found to be 94.8%. As for `C=C1C[C@@H]2[C@H](CC[C@]3(C)C(=O)CC[C@@H]23)[C@@]2(C)C=CC(=O)C=C12` [Exemestane], the HCT116-GFP viability worked out at 84.4%. The value for `CCCC(C)(COC(N)=O)COC(=O)NC(C)C` (stereo unspecified) [Carisoprodol] was 89%; that for `CCC1(C)CC(=O)NC(=O)C1` [Bemegride] was 75.4%; that for `C[N+]1(C)CCCC(OC(=O)C(O)(c2ccccc2)c2ccccc2)C1` (stereo unspecified) [Mepenzolate bromide] was 91.9%. For `OC(c1ccccc1)(c1ccccc1)C1CCNCC1` [Azacyclonol], the HCT116-GFP viability came out at 91%. For `NC(=O)OCCCc1ccccc1` [Phenprobamate] the value was 86.6%; for `O=C(CCCN1CCC(n2c(=O)[nH]c3ccccc32)CC1)c1ccc(F)cc1` [Benperidol], 74.7%; for `C=CCC1(CC(C)C)C(=O)NC(=O)NC1=O` [Butalbital], 99.8%. The value for `C[C@@H]1CN([C@H]2CC[C@](C#N)(c3ccc(F)cc3)CC2)CC[C@]1(C(=O)O)c1ccccc1` [Levocabastine hydrochloride] was 93.5%; that for `COc1ccc(OC)c(C(O)C(C)N)c1` (stereo unspecified) [Methoxamine hydrochloride] was 92.4%; that for `CCC(=O)O[C@H]1CC[C@H]2[C@@H]3CCC4=CC(=O)CC[C@]4(C)[C@H]3CC[C@]12C` [Testosterone propionate] was 114%.
